Test results taken from publication PMC7819943, “Rice protein-binding microarrays: a tool to detect cis-acting elements near promoter regions in rice”.
The list shows a part of the results.

target: T1, OsWOX13 (Oryza sativa, UniProt Q5QMM3 1-267); assay: protein-binding microarray (RPBM); PBS, 2% BSA, 51.3 ng/ul salmon testes DNA, 50 uM zinc acetate, 200 nM TF, 25 C, 1 h; high values mean tight binding; conditions: protein: recombinant; tags: N-terminal polyhistidine and DsRed monomer fusion (pET32a); label: CyDye5-dUTP incorporated in the synthesized complementary strand; 3' TTTTT single-stranded linker to array surface; dsDNA, one strand shown
T1 sequence: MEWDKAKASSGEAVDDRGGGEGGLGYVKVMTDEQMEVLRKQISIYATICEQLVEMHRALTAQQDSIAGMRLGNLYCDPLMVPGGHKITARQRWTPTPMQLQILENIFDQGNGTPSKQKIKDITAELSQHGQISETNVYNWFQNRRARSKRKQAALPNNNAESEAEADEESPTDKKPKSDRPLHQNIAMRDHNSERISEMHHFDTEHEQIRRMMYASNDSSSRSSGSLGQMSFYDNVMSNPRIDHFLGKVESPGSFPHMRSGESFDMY
Procedure, shortened: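 Transcription factors, each fused N-terminally to a polyhistidine tag and DsRed, were expressed in E. coli BL21-CodonPlus and purified on Ni–NTA. A custom Agilent array was made double-stranded by primer extension with Cy5-dUTP and blocked with 2% BSA. It was incubated with 200 nM protein in PBS, 2% BSA, salmon testes DNA and 50 µM zinc acetate at 25 °C for 1 h, then washed. The binding signal is per-feature fluorescence intensity (arbitrary units) read on an Axon 4000B scanner.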

Row | Sequence | binding signal
1 | CGGGCGGGGCGGGGCGGGTTCGCTCGTCGGATGTGTGGATCGGAGTCACCTAGTGCAG | 4670 fluorescence intensity (a.u.)
2 | AACTTAGATTAGCCAGTATATATTTGTATATTTTGGAAATCGGAGTCACCTAGTGCAG | 6360 fluorescence intensity (a.u.)
3 | ATATATATATATATATATATATATATATATGTGTGTGTGTCGGAGTCACCTAGTGCAG | 15700 fluorescence intensity (a.u.)
4 | ATAGATTTTGACATTTTACATCAATAGTTTGGTCACTTGTCGGAGTCACCTAGTGCAG | 12100 fluorescence intensity (a.u.)
5 | GCGGCGATCGATCAATCAGAAACCGGCCGGGTATATATAGCGGAGTCACCTAGTGCAG | 4020 fluorescence intensity (a.u.)
6 | AGATAATTGACAAGGTACAATTTATGGCATTTTCCTTTTCCGGAGTCACCTAGTGCAG | 26200 fluorescence intensity (a.u.)
7 | AACCGGATAGACAGGTTTCACCACGGAAAATTAAACCTAGCGGAGTCACCTAGTGCAG | 8800 fluorescence intensity (a.u.)
8 | GGGGACATGATTACAAGATAGAAACCTTAACCAATATGGTCGGAGTCACCTAGTGCAG | 16700 fluorescence intensity (a.u.)
9 | ATGTTTTGAGCACCAATCACACACCAATAACGCCAACGTACGGAGTCACCTAGTGCAG | 19500 fluorescence intensity (a.u.)
10 | TTAATTTGTTATCCATCTTGGTCTTGGGCTTTTGGTGTCACGGAGTCACCTAGTGCAG | 7330 fluorescence intensity (a.u.)
11 | CCTCGTCTGACAGGTAGTCCCATCACGTGGGCCCCACCTCCGGAGTCACCTAGTGCAG | 3570 fluorescence intensity (a.u.)
12 | CTCCATGACAGGTTACTGATTAACTAAGCAAGGGTGTCTCCGGAGTCACCTAGTGCAG | 28700 fluorescence intensity (a.u.)
13 | TCAAATTAGCCACGTATGCGCCACATCAACCAATACCGCCCGGAGTCACCTAGTGCAG | 3340 fluorescence intensity (a.u.)
14 | ATGTTGAGTCTCCTATTGATTGGAATCAGACTTGAGAAGGCGGAGTCACCTAGTGCAG | 29800 fluorescence intensity (a.u.)
15 | GTTTATTTATAATTATATTATATTAATATTGTTTGAAAATCGGAGTCACCTAGTGCAG | 8200 fluorescence intensity (a.u.)
16 | TACCGTCTTAAATTTGACTTGATCTAATCCATGGCCAGATCGGAGTCACCTAGTGCAG | 3440 fluorescence intensity (a.u.)
17 | CAAGATTTTAATAAATGCATAATTTTATGAATCGCATAGACGGAGTCACCTAGTGCAG | 7290 fluorescence intensity (a.u.)
18 | CCCCTTTGTGATTTGATGAGGCGCTGTGATATCGGGGTGGCGGAGTCACCTAGTGCAG | 22300 fluorescence intensity (a.u.)
19 | ACAAATTAGTATTTACATAAAGAAATTCCTGCGTCTGCGTCGGAGTCACCTAGTGCAG | 29000 fluorescence intensity (a.u.)
20 | ATATATATATATATATATTTGTACTATGTATGGAATTTTCCGGAGTCACCTAGTGCAG | 3390 fluorescence intensity (a.u.)
21 | GCTAATTCATACAATAATTGTTTACTATACTATTAATATACGGAGTCACCTAGTGCAG | 13400 fluorescence intensity (a.u.)

Row | Sequence | binding signal
22 | GGTAATTAAATATGCTGGATGTGTAGTTCGGTTCAAGTAGCGGAGTCACCTAGTGCAG | 24700 fluorescence intensity (a.u.)
23 | AGCTCTCTGCCAATCAAGCTACACACCTTGTTCCCCTACTCGGAGTCACCTAGTGCAG | 7180 fluorescence intensity (a.u.)
24 | GGTTGGATGGTTGGATTTGATGTGGATTTGAATTGTTATGCGGAGTCACCTAGTGCAG | 7890 fluorescence intensity (a.u.)
25 | CTTCTTATATTATTTTAATTAGAAGTTTTACTGTTAATGTCGGAGTCACCTAGTGCAG | 3320 fluorescence intensity (a.u.)
26 | AAAACAGTAAATCAATGTTATATTATAAAGTACTATAATACGGAGTCACCTAGTGCAG | 3150 fluorescence intensity (a.u.)
27 | GACAGTGACATGCTCTAATTATATTTGAAGCTGGACCTCACGGAGTCACCTAGTGCAG | 8100 fluorescence intensity (a.u.)
28 | ACAGTAATTATTTTCATCTTAGACTACTTAATATAAGTTTCGGAGTCACCTAGTGCAG | 13000 fluorescence intensity (a.u.)
29 | TCTAATTACTTCATGATTTGATAATTTGGTGTTACAGTAACGGAGTCACCTAGTGCAG | 52400 fluorescence intensity (a.u.)
30 | CCGGACTAAATTAAGACAAACTGAGACTGAAAAGAACTCACGGAGTCACCTAGTGCAG | 7570 fluorescence intensity (a.u.)
31 | ATAATGGAACAGAGAATTATTTACTTTACAAATTTCTCGTCGGAGTCACCTAGTGCAG | 4830 fluorescence intensity (a.u.)
32 | TTGGTGACAGATTCCATCTGCCAACATACATATATATTGGCGGAGTCACCTAGTGCAG | 8100 fluorescence intensity (a.u.)
33 | TTGCATTTAATTAATCAAATGAAACGAGAACATTGTGTTTCGGAGTCACCTAGTGCAG | 30500 fluorescence intensity (a.u.)
34 | ATACATGACGGCAATTGAATGACACTTGTTGAATTTTCAGCGGAGTCACCTAGTGCAG | 5650 fluorescence intensity (a.u.)
35 | GTATACAAATTTATAATCAATGTTGGGTGGAAAATAAATTCGGAGTCACCTAGTGCAG | 15600 fluorescence intensity (a.u.)
36 | TAACTTTCTCTGTCAATCTAGCTTAACAATTGTCAGAAAACGGAGTCACCTAGTGCAG | 9960 fluorescence intensity (a.u.)
37 | GCAATAGATTGGATAAATAAATGTAATCCAGATAAAATATCGGAGTCACCTAGTGCAG | 27100 fluorescence intensity (a.u.)
38 | TATCAATCTGATCCGATTTGCTACTGTAAGAGAAGACTTGCGGAGTCACCTAGTGCAG | 3330 fluorescence intensity (a.u.)
39 | CAAGTTCTTGTCAAAATAGACAGAATTATGGGATTTGAGCCGGAGTCACCTAGTGCAG | 9060 fluorescence intensity (a.u.)
40 | CCTTAATTTAGTCTAAGGTTCTGGATTTTAATAGAGTATACGGAGTCACCTAGTGCAG | 6920 fluorescence intensity (a.u.)
41 | TCTTTGATAGACAGAGCTCTTCCTTTGATTCAGCTCAAGGCGGAGTCACCTAGTGCAG | 39000 fluorescence intensity (a.u.)
42 | ATTATAATTGAGTACATTCTAGTATAATAATAATGAAATTCGGAGTCACCTAGTGCAG | 15200 fluorescence intensity (a.u.)
